Measured values reported in the supplement of paper PMC11417369.
± gives the standard deviation of the averaged measurements. The list shows a part of the results.

test system: PfAP2-G AP2 domain (GST-tagged); test: gcPBM binding intensity (ln(normalized median fluorescence intensity)); higher = stronger DNA binding
Summary of the method: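 Binding intensity is the highest Masliner-normalised natural-log median intensity over replicate spots in either probe orientation. To obtain it, GST-tagged P. falciparum DNA-binding domains made in E. coli were incubated for 1 h on an Agilent 4 × 180k array of primer-extended double-stranded 36-bp intergenic genomic probes plus negative controls. Detection used Alexa488 anti-GST antibody with scanning at 488 nm.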

Sequence | gcPBM binding intensity (ln)
GACGACTATATTAATTGTACTCAATTTAAGCATAAT [XGTACX_site2750] | 11.3 ± 0.95
GAAAGGAAAAGTTGAACACACAAAGTAAACTATAAG [CACACA_site3535] | 10.13 ± 0.064
TAATTATAAAAATAAAACAACCAAATTTGTTATATA [CACACA_negctrl_site750] | 9.95 ± 0.057
TAATTTATAAATAATTGTACATAGTTTATTTAGATT [XGTACX_site4599] | 10.9 ± 0.43
ATATATATAAAATAAAGTACCCGTAAAACCTATATG [XGTACX_site6937] | 11.3 ± 0.84
AAAAAAAAAAAAAAAAAATAATAAAAAATAAAAAAA [GTGCAC_negctrl_site341] | 10.2 ± 0.35
GCTATAAATACAGACGCACACATATACATACATATA [CACACA_site3329] | 10.4 ± 0.2
TAATGAAGATATATAACACACAAAAGTTATAAATAT [CACACA_site6678] | 9.77 ± 0.057
ATATATAATAATATATGTACATAATATTTTTTTTTT [XGTACX_site1941] | 11.3 ± 0.73
GCCATTAATTTATACACACACATTAAAATTTTTTAT [CACACA_site4575] | 10.2 ± 0.13
AACGCCACTTCAATGGCACACACCAATTATTTTTCA [CACACA_site1026] | 10.14 ± 0.099
TTTCTCCATATTAAAGTGCATTAATAACAAAAATAA [GTGCAC_site9934] | 10.2 ± 0.59
TATCCTACATTAACAAGTACAAAGAGATCCTACGTA [XGTACX_site4252] | 11 ± 0.6
AAGAATATATAGGACACACATACAATAATAAATATA [CACACA_site4119] | 10.7 ± 0.54
TATATACAGATATATACACACATATTTATATTTTAT [CACACA_site7734] | 9.72 ± 0.2
GTATAGAGAAAAAACTGTACTTTATATAAATATTTA [XGTACX_site3972] | 11.2 ± 0.76
TATTAATAATATAATAGTACTTTCACTGTAAATTTA [XGTACX_site6419] | 10.8 ± 0.38
TCATTCGAATAAATTGCACACATGACATCCGTTGTA [CACACA_site2587] | 9.88 ± 0.13
AAAAAAAAAAAAAATATACACACTAATATATTTTTT [CACACA_site815] | 9.9 ± 0.11

Sequence | gcPBM binding intensity (ln)
ATATATATATTAATTACACACAAAAAAAAAAAAAAA [CACACA_site1165] | 9.93 ± 0.54
CTTTTTTTTATGAACAGTACAGAAATATATATATAC [XGTACX_site5613] | 10.9 ± 0.6
TTTATATAATGGAAAAGTACTCAGGAAATTTATACA [XGTACX_site3635] | 11.2 ± 0.73
CATATCTCTTATTAATGTACATTTTTAAAAGTAAAT [XGTACX_site2847] | 11 ± 0.69
CAAGAACAAAAAATATGTACATATAATTATATATAT [XGTACX_site2082] | 11.3 ± 0.97
TGTAATATTTTATAAAGTACATTATAATATAATTCA [XGTACX_site2961] | 11 ± 0.76
TTAAAATTAAAAATAGGTACACATATGAACAAGGAC [XGTACX_site1180] | 11.5 ± 0.78
TTATATGATATATGACGTACATATTAATAACATCTA [XGTACX_site6716] | 11.4 ± 0.99
TTGTTCCAATAAAATCGTACAATTAAACAACCAAAC [XGTACX_site5759] | 11.2 ± 0.7
TTTTTTTCTATAATACACCAGAAAAAAAAATTAAAA [TGCATGCA_negctrl_site257] | 10.2 ± 0.38
AGATTGAAATATAGTTGTACAAATATTTTAAAACAT [XGTACX_site3026] | 11.3 ± 0.86
CAATCAACAAAACATACACACACATATATATATATA [CACACA_site8979] | 10.1 ± 0.23
AACATATTTTTTTGTTGTACTTACAATTATAAGCAT [XGTACX_site3056] | 11.6 ± 1
TATACCAAATATATGGGTACACAAATATGTTTATTC [XGTACX_site8932] | 11.6 ± 0.89
TAATTAATCGATTTACGCACATGAACAAAAGCACAT [CACACA_negctrl_site1287] | 10.3 ± 0.24
TTAAACATATATTAAGCACACACAAACAAAAAAACA [CACACA_site8816] | 10.2 ± 0.21
ACTATTTTCTTCAAAACATGCACCACATAAACATAA [TGCATGCA_site200] | 10.6 ± 0.51
ATTATTTATTTATGTGTGCGCATGTGTGTAAATATT | 10.6 ± 0.35
TATAAAGCAACTGAAACACACAAATTTTTTTTTTTT [CACACA_site3218] | 9.7 ± 0.071

Sequence | gcPBM binding intensity (ln)
GTAAATATTAATAAAAGTACATATGTAGCATATGGA [XGTACX_site5219] | 11.2 ± 0.67
CCTTTTTTATTTACAACACACGTAAAGGTTCAAATA [CACACA_site1741] | 10.4 ± 0.35
AGAAAAAAAAAAAATGCACACATTTTCATTGTCAGT [CACACA_site1935] | 9.85 ± 0.042
ATATATATATATATGTGTACATATTTTTTTTTTTTT [XGTACX_site3425] | 11.4 ± 0.82
AAAAAACACAGACATACACACAAAAAGGTTATAAAT [CACACA_site4222] | 10.05 ± 0.049
ACAGAAAAAAGACACACACACATAATATACATACAT [CACACA_site6991] | 10.2 ± 0.11
TTTTTTTCGTAAAAAAAAATAATTATTAAATGAAGG [TGCATGCA_negctrl_site212] | 10.01 ± 0.099
ATTTTTTAAATGAGGCGTACACAAAAATATAATTAC [XGTACX_site7087] | 11.7 ± 1.1
TATATATATATATATACACACACACTAATAAAAAAA [CACACA_site8426] | 10.2 ± 0.3
CTTAGATATAAAAATTGTACATACATATTTTTGACA [XGTACX_site2107] | 11.1 ± 0.63
TTTATTTATTTTTAACGTACGCACACATATAAATAT [XGTACX_site4042] | 11.4 ± 0.72
TAAACACCCATATAAACACACATATAAACACCCATA [CACACA_site5382] | 10.2 ± 0.3
TATATACATTGGTATACATGCATTCTCTTTCATACA [TGCATGCA_site734] | 9.995 ± 0.007
TAAAATTTATAAACTACACACATATAAATAGTAATA [CACACA_site7708] | 10.06 ± 0.064
TATTATAAAATATACACATGCAAAAACAAAATTTAC [TGCATGCA_site1051] | 10.11 ± 0.092
TATTTTTAATAAAAACGTACGGAATACAAAAAAAAT [XGTACX_site3477] | 11 ± 0.63
AAAATTTAAAAATGGACACACACAAAAAATAATACT [CACACA_site7972] | 10.9 ± 0.49
AACTTTTTACAAACAGGTACGCATATATATATATAT [XGTACX_site5081] | 11.1 ± 0.62
AATAATTATTTGTATAGTACAATATACAAAAGATGA [XGTACX_site4312] | 10.9 ± 0.57
